Data taken from PubChem BioAssay (Tox21).
Values joined by “and” are separate entries in the source; they are usually repeats but may differ in a detail not shown here. Equal entries are not always repeated. Inconclusive means that the source gave no clear call. Such entries were picked first, then a sample of the others. Potencies of inconclusive entries are doubtful fits and often do not repeat. Where a structure was tested more than once in an assay, its records may differ in their call. Active and inactive are the calls of the source. Unless noted, calls come from the whole dose curve; as a rule, active = well fitted cell-killing curve with a large enough effect in the repeat runs; inconclusive = weak or mixed curves, or effect the other way; inactive = no such curve, though single readings can be large or run the other way.

What was measured:
[1] = biological target: Bile acid receptor (Homo sapiens) (UniProt Q96RI1); test: qHTS assay to identify small molecule agonists of the farnesoid-X-receptor (FXR) signaling pathway (AID 743220; active = well fitted activation curve with a large enough effect in the signal ratio in the repeat runs, not every such curve was filed as active; inconclusive = weak or mixed curves, or effect the other way; the % refers to the signal ratio; for activation: % is set by controls: 0 for no effect and ±100 for the full control effect); conditions: HEK293T FXR-UAS-bla, beta-lactamase FRET ratio, 16 h; activation: at 62.6 µM (top of the series) unless noted
How it was run: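 Beta-lactamase reporter under UAS control in GeneBLAzer FXR HEK 293T cells (5000/well) measured with LiveBLAzer FRET substrate after 2 h at room temperature. Compound exposure lasted 16 h at 37C.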

[2] = biological target: Vitamin D3 receptor (Homo sapiens) (UniProt P11473); test: qHTS assay to identify small molecule antagonists of the vitamin D receptor (VDR) signaling pathway (AID 743223; active = well fitted inhibition curve with a large enough effect in the signal ratio in the repeat runs, not every such curve was filed as active; inconclusive = weak or mixed curves, or effect the other way; inactive = no such curve, though single readings can be large or run the other way; the % refers to the signal ratio; for activity change, negative = inhibition: % is set by controls: 0 for no effect and ±100 for the full control effect); conditions: VDR-UAS-bla HEK293T, beta-lactamase FRET ratio, 16 h; activity change, negative = inhibition: at 61 µM (top of the series) unless noted
How it was run: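 Reporter line VDR-bla; stimulus 1alpha,25-(OH)2 vitamin D3, 3 nM final; compound co-addition, 16 h 37C/5% CO2; LiveBLAzer B/G substrate 2 h RT; fluorescence intensity.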

[3] = qHTS assay to identify small molecule agonists of the NFkB signaling pathway (AID 1159509; active = well fitted curve in the direction sought with a large enough effect in the signal ratio in the repeat runs, not every such curve was filed as active; inconclusive = weak or mixed curves, or a change in a side signal; inactive = no such curve, though single readings can be large or run the other way; the % refers to the signal ratio; for activation: % is set by controls: 0 for no effect and ±100 for the full control effect); conditions: NFkB-bla ME-180 cells, beta-lactamase FRET ratio, 5 h; activation: at 61 µM (top of the series) unless noted
How it was run: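 ME-180 NFkB-bla, 2,000 cells/well, overnight plating; cpd pinned in DMSO, 5 h 37 C; B/G FRET substrate 1.5 h RT; ex 405, em 460/530 nm.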

[4] = qHTS assay to identify small molecule agonists of the NFkB signaling pathway - cell viability counter screen (AID 1159515; calls by dose curve; note: nearly all actives have a fitted effect of over 55% in size)
How it was run: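 Viability in NFkB-bla ME-180 cells was measured by CellTiter-Glo luminescence, 30 min room temperature, in wells already treated 5 hr with compounds and read for reporter FRET.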

[5] = qHTS assay to identify small molecule antagonists of the farnesoid-X-receptor (FXR) signaling pathway - cell viability counter screen (AID 743221; active = well fitted cell-killing curve with a large enough effect in the repeat runs, not every such curve was filed as active; inconclusive = weak or mixed curves, or effect the other way; inactive = no such curve, though single readings can be large or run the other way; note: nearly all actives have a fitted effect of over 50% in size); conditions: FXR-bla HEK293T viability, CellTiter-Glo luminescence, 16 h; activity change, negative = cytotoxicity: at 62.6 µM (top of the series) unless noted
How it was run: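 After a 5 h settling period, FXR-bla HEK 293T cells receive compound and chenodeoxycholic acid (50 uM final) and incubate 16 h at 37 C; CellTiter-Glo luminescence, read after 30 min at room temperature, reports cell viability.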

[6] = qHTS assay to identify small molecule agonists of the vitamin D receptor (VDR) signaling pathway - cell viability counter screen (AID 743224); note: nearly all actives have a fitted effect of over 50% in size
How it was run: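 VDR-bla cell line, quantitative HTS format; 16 h compound incubation (37C, 5% CO2); ATP-based CellTiter-Glo luminescence measured in the reporter assay wells.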

[7] = qHTS assay to identify small molecule antagonists of the vitamin D receptor (VDR) signaling pathway - cell viability counter screen (AID 743225); conditions: VDR-bla HEK293T viability, CellTiter-Glo luminescence, 16 h; viability change, negative = cytotoxic: at 61 µM (top of the series); note: nearly all actives have a fitted effect of over 50% in size
How it was run: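 Parallel cytotoxicity test: VDR-UAS-bla HEK 293T, 3 nM (final) 1-alpha,25-dihydroxyvitamin D3 with test compound, 16 h, 37C. Endpoint is CellTiter-Glo luminescence in the same wells.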

[8] = qHTS assay to identify small molecule agonists of the endoplasmic reticulum stress response signaling pathway (AID 1159516; active = well fitted activation curve with a large enough effect in the signal ratio in the repeat runs, not every such curve was filed as active; inconclusive = weak or mixed curves, or effect the other way; the % refers to the signal ratio); conditions: ESRE-bla HeLa, ER stress beta-lactamase reporter, 5 h; activation: at 61 µM (top of the series) unless noted
How it was run: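 ER stress element reporter (bla) in HeLa. 1,500 cells/well, overnight attachment; 5 hr compound; 2 hr RT substrate; dual-emission fluorescence.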

[9] = biological target: Vitamin D3 receptor (Homo sapiens) (UniProt P11473); test: qHTS assay to identify small molecule agonists of the vitamin D receptor (VDR) signaling pathway (AID 743222; calls by dose curve; for activation: % is set by controls: 0 for no effect and ±100 for the full control effect); conditions: HEK293T VDR-UAS-bla, beta-lactamase FRET ratio, 16 h
How it was run: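 Agonist activity measured in VDR-bla reporter cells. Exposure 16 h, 37C, 5% CO2; detection by B/G FRET substrate, 2 h RT.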

[10] = qHTS assay to identify small molecule agonists of the farnesoid-X-receptor (FXR) signaling pathway - cell viability counter screen (AID 743218); conditions: FXR-bla HEK293T viability, CellTiter-Glo luminescence, 16 h; viability change, negative = cytotoxic: at 62.6 µM (top of the series) unless noted; note: nearly all actives have a fitted effect of over 45% in size
How it was run: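 In GeneBLAzer FXR-UAS-bla HEK 293T cells, compounds act for 16 h at 37 C. Cell viability is then scored in the reporter wells by CellTiter-Glo, 30 min at RT, luminescence.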

[11] = activation: at 63.5 µM (top of the series) unless noted
Potency is the fitted concentration of half-maximal effect; tags give direction and shape of the fitted curve or compound fluorescence and quenching.

Sequence of UniProt P11473 (P11473 whole entry, looked up): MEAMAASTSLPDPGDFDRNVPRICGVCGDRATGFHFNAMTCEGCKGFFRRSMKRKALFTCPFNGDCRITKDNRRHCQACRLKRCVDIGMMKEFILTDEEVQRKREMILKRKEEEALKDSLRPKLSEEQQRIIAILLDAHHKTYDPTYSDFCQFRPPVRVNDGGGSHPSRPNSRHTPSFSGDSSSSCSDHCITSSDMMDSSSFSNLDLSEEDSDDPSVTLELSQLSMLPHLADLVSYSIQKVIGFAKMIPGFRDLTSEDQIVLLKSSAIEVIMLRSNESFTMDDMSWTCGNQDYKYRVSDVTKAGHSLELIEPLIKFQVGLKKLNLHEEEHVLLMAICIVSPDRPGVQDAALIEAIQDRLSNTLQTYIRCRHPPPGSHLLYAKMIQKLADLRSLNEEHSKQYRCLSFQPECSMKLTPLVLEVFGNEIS
Sequence of UniProt Q96RI1 (Q96RI1 whole entry, looked up): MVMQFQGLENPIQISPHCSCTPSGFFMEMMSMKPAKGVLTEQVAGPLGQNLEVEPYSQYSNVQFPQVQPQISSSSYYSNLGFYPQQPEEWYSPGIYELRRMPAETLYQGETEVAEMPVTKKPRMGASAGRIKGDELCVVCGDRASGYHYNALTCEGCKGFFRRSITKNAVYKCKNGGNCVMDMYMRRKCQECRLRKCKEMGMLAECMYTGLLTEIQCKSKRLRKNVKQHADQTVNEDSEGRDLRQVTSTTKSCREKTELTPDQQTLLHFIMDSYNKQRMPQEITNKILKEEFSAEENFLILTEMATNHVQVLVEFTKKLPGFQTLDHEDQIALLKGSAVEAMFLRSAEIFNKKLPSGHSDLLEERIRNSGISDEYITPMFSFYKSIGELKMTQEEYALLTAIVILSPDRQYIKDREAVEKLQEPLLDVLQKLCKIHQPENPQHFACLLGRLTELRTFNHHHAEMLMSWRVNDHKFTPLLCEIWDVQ

## Clc1ccc(C(Cl)(Cl)Cl)cn1
[1]
  Potency: inactive
[2]
  activity change, negative = inhibition: inconclusive: 11.7%
[3]
  Potency: inactive
[4]
  Potency: inactive

## CCc1nn(C)c(C(=O)NCc2ccc(C(C)(C)C)cc2)c1Cl
[5]
  Potency: inconclusive: 54.9 µM [falling, single point]
[2]
  Potency: inconclusive: 49 µM [partial curve]
[6]
  Potency: active: 27.5 µM
[7]
  Potency: active: 38.9 µM
[3]
  Potency: inconclusive: 54.9 µM
[4]
  Potency: active: 54.9 µM
[8]
  Potency: inconclusive: 61.6 µM

## CCOP(=O)(OCC)Oc1ccc([N+](=O)[O-])cc1
[1]
  Potency: inactive
[9]; [11]
  activation: inconclusive: 14.2%
[9]; at 81.1 µM (top of the series)
  activation: inactive: 7.31%
[2]
  activity change, negative = inhibition: inconclusive: -31.2%
[6]
  Potency: inconclusive: 21.9 µM [cytotoxic, partial curve, poor fit]
[7]
  Potency: inconclusive: 0.195 µM [cytotoxic, single point]
[3]
  Potency: inconclusive: 14 µM [falling, partial curve]
[4]
  Potency: inconclusive: 61.6 µM [cytotoxic, single point]

## CC(C)(C)c1cc(O)ccc1O
[6]
  Potency: inconclusive: 54.9 µM [cytotoxic]
[7]
  Potency: inconclusive: 49 µM [cytotoxic, partial curve, poor fit]
[3]
  Potency: inconclusive: 1.23 µM [rising, full curve, poor fit]
[4]
  Potency: inconclusive: 9.77 µM [rising, partial curve, poor fit]
[8]
  Potency: inconclusive: 43.6 µM [rising, partial curve, poor fit]

## Cc1ccc2ccccc2c1
[9]; [11]
  activation: inconclusive: 10.3%
[7]
  Potency: inactive
[3]
  Potency: inactive
[4]
  Potency: inconclusive: 42.2 µM [rising, partial curve, poor fit]

## CCCCOC(=O)c1ccccc1C(=O)OCc1ccccc1
[5]
  Potency: inconclusive: 21.9 µM [phenotype inactive, partial curve, poor fit]
[6]
  Potency: inconclusive: 61.6 µM [cytotoxic, single point]
[7]
  Potency: inconclusive: 0.219 µM [cytotoxic, single point]
[3]
  Potency: inconclusive: 0.0062 µM [falling, full curve]
[4]
  Potency: inconclusive: 21.8 µM [cytotoxic, partial curve] and inconclusive: 2.45 µM [cytotoxic, single point]
[8]
  Potency: inconclusive: 15.5 µM [falling, partial curve]

## O=C1c2ccccc2C(=O)C1C(=O)C(c1ccccc1)c1ccc(Cl)cc1 (configuration not stated)
[6]
  Potency: active: 21.9 µM
[7]
  Potency: inconclusive: 15.5 µM [cytotoxic, partial curve, poor fit]
[3]
  Potency: inconclusive: 49 µM [falling, partial curve]
[4]
  Potency: inconclusive: 54.9 µM [cytotoxic, single point]
[8]
  Potency: inconclusive: 24.5 µM [falling, partial curve, poor fit]

## CN(C)[C@@H]1C(=O)C(C(N)=O)=C(O)[C@@]2(O)C(=O)C3=C(O)c4c(O)ccc(Cl)c4[C@@](C)(O)[C@H]3C[C@@H]12
[9]; [11]
  Potency: inconclusive: 50 µM
[2]
  Potency: inconclusive: 50 µM
[3]
  Potency: inconclusive: 50 µM [fluorescent]
[4]
  Potency: inconclusive: 56.1 µM [rising, partial curve, poor fit]
[8]
  Potency: inconclusive: 56.1 µM [fluorescent, single point]

## O=C(CCl)c1ccc(Cl)cc1Cl
[10]
  Potency: inconclusive: 867 nM [cytotoxic, full curve] and inconclusive: 23.7 µM [cytotoxic, partial curve, poor fit]
[1]
  Potency: inconclusive: 48.7 µM [rising, partial curve, poor fit]
  activation: inconclusive: -10.9%
[2]
  Potency: inconclusive: 26.8 µM [rising, partial curve]
  activity change, negative = inhibition: inconclusive: 0.847%
[6]
  Potency: inactive and active: 18.8 µM
[7]
  Potency: inconclusive: 21.3 µM [cytotoxic, partial curve]
[3]
  Potency: inconclusive: 15.1 µM [falling, partial curve, poor fit]
[4]
  Potency: inconclusive: 688 nM [cytotoxic, full curve, poor fit] and inconclusive: 12 µM [cytotoxic, full curve]

## CCC[CH2][Sn]([CH2]CCC)([O]C(C)=O)[O]C(C)=O
[10]
  Potency: active: 11.1 µM
[1]
  Potency: inconclusive: 19.7 µM [rising, full curve]
[9]; [11]
  Potency: inconclusive: 22.1 µM [rising, full curve, poor fit]
[2]
  Potency: inconclusive: 22.1 µM [rising, partial curve]
[6]
  Potency: inconclusive: 39.3 µM [cytotoxic, partial curve]
[3]
  Potency: inconclusive: 6.22 µM [falling, full curve]
[4]
  Potency: active: 11.1 µM

## CCC[CH2][Sn]([Cl])([Cl])[CH2]CCC
[10]
  Potency: active: 140 nM and active: 24.5 nM
[5]
  Potency: active: 222 nM and active: 123 nM
[7]
  Potency: active: 1.11 µM and active: 275 nM
[3]
  Potency: inconclusive: 990 nM [falling, full curve] and inconclusive: 549 nM [falling, full curve]
[4]
  Potency: active: 3.13 µM and active: 2.45 µM

## CC(C)OC(=O)C(O)(c1ccc(Cl)cc1)c1ccc(Cl)cc1
[9]; [11]
  Potency: inactive
[6]
  Potency: inconclusive: 54.9 µM [cytotoxic]
[7]
  Potency: inconclusive: 61.6 µM [cytotoxic, single point]
[3]
  Potency: inconclusive: 49 µM [falling, partial curve]
[4]
  Potency: active: 49 µM
[8]
  Potency: inconclusive: 54.9 µM [cytotoxic]

## ClC(Cl)=C(c1ccc(Cl)cc1)c1ccc(Cl)cc1
[10]
  Potency: inconclusive: 56.3 µM [cytotoxic, single point] and active: 38.9 µM
[5]
  Potency: inconclusive: 63.2 µM [falling, single point]
[7]
  Potency: inactive
[3]
  Potency: inconclusive: 56.3 µM and inconclusive: 54.9 µM
[4]
  Potency: inconclusive: 56.3 µM [cytotoxic, single point] and inconclusive: 54.9 µM [cytotoxic, single point]

## O=[N+]([O-])C(Br)(CO)CO
[1]
  Potency: inactive
[9]; [11]
  Potency: inconclusive: 49 µM
[2]
  Potency: inconclusive: 54.9 µM [fluorescent]
[6]
  Potency: inconclusive: 54.9 µM [cytotoxic]
[7]
  Potency: inconclusive: 61.6 µM [cytotoxic, single point]
[3]
  Potency: inactive
[4]
  Potency: inconclusive: 27.5 µM [cytotoxic, partial curve, poor fit]

## ClC1=C(Cl)C2(Cl)C3C(Cl)C(Cl)CC3C1(Cl)C2(Cl)Cl (configuration not stated)
[10]
  Potency: active: 48.8 µM and active: 54.9 µM
[1]
  Potency: inconclusive: 61.5 µM [single point] and inconclusive: 54.9 µM [single point]
[9]; [11]
  activation: inconclusive: 41.4%
[7]
  Potency: active: 54.8 µM and active: 49 µM
[3]
  Potency: inconclusive: 54.8 µM [single point] and inconclusive: 54.9 µM [single point]
[4]
  Potency: inconclusive: 54.8 µM [cytotoxic, single point] and inconclusive: 61.6 µM [cytotoxic, single point]

## CCOP(=S)(OCC)SCn1nnc2ccccc2c1=O
[10]
  Potency: active: 43.6 µM
[1]
  Potency: inconclusive: 54.9 µM [single point]
[5]
  Potency: inconclusive: 54.9 µM [falling, single point]
[9]; [11]
  Potency: inconclusive: 61.6 µM [rising, single point]
[2]
  Potency: inconclusive: 54.9 µM
[7]
  Potency: active: 49 µM
[3]
  Potency: inactive
[4]
  Potency: inconclusive: 61.6 µM [cytotoxic, partial curve, poor fit]

## O=C(O)c1cc[c]([Hg][Cl])cc1
[10]
  Potency: active: 27.5 µM
[1]
  activation: inconclusive: -5.7%
[5]
  Potency: inactive
[2]
  Potency: inconclusive: 54.9 µM [rising, partial curve, poor fit]
[7]
  Potency: active: 21.9 µM
[3]
  Potency: inconclusive: 38.9 µM [falling, partial curve]
[4]
  Potency: inconclusive: 4.9 µM [rising, partial curve, poor fit]

## COC1=CC(=O)O[C@@H](CCc2ccccc2)C1
[2]
  Potency: inconclusive: 4.54 µM [rising, full curve, poor fit]
[3]
  Potency: inactive
[4]
  Potency: inconclusive: 57.2 µM [rising, partial curve, poor fit]

## ClC(Cl)=C(Cl)Cl
[10]
  Potency: inconclusive: 9.65 µM [rising, partial curve, poor fit]
[3]
  Potency: inconclusive: 0.0034 µM [rising, full curve, poor fit]
[4]
  Potency: inconclusive: 54.3 µM [rising, single point]

## CC(C)CCCCCCCOP(=O)(Oc1ccccc1)Oc1ccccc1
[10]
  Potency: inconclusive: 24.7 µM [cytotoxic, partial curve, poor fit]
[1]
  activation: inconclusive: 3.26% [at 81.1 µM]
[9]; [11]
  activation: inconclusive: -28.6% [at 81.1 µM]
[2]
  Potency: inconclusive: 49.2 µM [fluorescent, partial curve, poor fit]
[3]
  Potency: inconclusive: 55.2 µM [falling, single point]
[4]
  Potency: inconclusive: 61.9 µM [cytotoxic, single point]

## CC(C)N1C(=O)N(c2ccccc2)CSC1=NC(C)(C)C
[10]
  Potency: inconclusive: 49 µM [cytotoxic, single point]
[9]; [11]
  Potency: inactive
[6]
  Potency: active: 49 µM
[7]
  Potency: inconclusive: 54.9 µM [cytotoxic, single point]
[3]
  Potency: inconclusive: 61.6 µM [falling, single point]
[4]
  Potency: inconclusive: 61.6 µM [cytotoxic, single point]
